# Experimental data reported in the supplement of paper PMC12217912.
# Some of the results follow. Sequences were assembled here from the parent chain. Values near 0.05 are background.
# B1: TEV protease; numbered along this chain (parent)
# chain: MGESLFKGPRDYNPISSSICHLTNESDGHTTSLYGIGFGPFIITNKHLFRRNNGTLVVQSLHGVFKVKDTTTLQQHLVDGRDMIIIRMPKDFPPFPQKLKFREPQREERICLVTTNFQTKSMSSMVSDTSCTFPSGDGIFWKHWIQTKDGQCGSPLVSTRDGFIVGIHSASNFTNTNNYFTSVPKNFMELLTNQEAQQWVSGWRLNADSVLWGGHKVFMVKPEEPFQPVKEATQL
# Variants of: B1
# Assay: raw area under fraction-flipped curve 0-4 h after induction (AUC4h, not background-subtracted), DNA-recorder readout of cleavage of the substrate (dimensionless); higher = more cleavage of the substrate by the protease variant
# Details: temperature: 34 °C; time window: 0-4 h after rhamnose induction
# Procedure: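 In vivo DNA recorder in E. coli TOP10(DE3) ΔrhaA at 34 °C. Each TEVp single-site mutant (parent TEVp 0) is paired with a single-site variant of the 7-mer TEVs (canonical ENLYFQ|S). The substrate sits between flexible linkers in a Bxb1-sfGFP-TEVs-SsrA fusion, so cleavage stabilises Bxb1 and speeds flipping of a recombination array, read by NGS. The value is the raw area under the fraction-flipped curve over 0-4 h after rhamnose induction (AUC4h), with ≥20 reads per time point. It is not background-subtracted; inactive controls average about 0.047.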
# 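Also: Bxb1 expression induced with 0.2% (w/v) L-rhamnose at OD600 near 0.5, cultures sampled hourly, flipped fraction per protease–substrate barcode pair counted by paired-end Illumina sequencing.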
Variant,area with substrate ENLYFQA,area with substrate ENLYFQC,area with substrate ENLYFQE,area with substrate ENLYFQF,area with substrate ENLYFQG,area with substrate ENLYFQH,area with substrate ENLYFQI,area with substrate ENLYFQK,area with substrate ENLYFQL,area with substrate ENLYFQM,area with substrate ENLYFQN,area with substrate ENLYFQR,area with substrate ENLYFQS,area with substrate ENLYFQT,area with substrate ENLYFQW,area with substrate ENLYFQY,area with substrate ENLYFQP,area with substrate ENLYFQD,area with substrate ENLYFQQ,area with substrate ENLYFQV
K66M,0.0824,0.116,0.0565,0.0884,0.0928,0.0923,0.0611,0.0613,0.0753,0.0825,0.088,0.0542,0.103,0.0678,0.0596,0.0788,,,,
N52Q,0.0521,0.0806,0.0541,,0.0793,0.0619,,0.0661,0.0637,0.067,0.0664,0.0503,0.079,0.0566,0.0442,,0.0639,,,
I43H,0.0435,0.0337,,0.0219,0.0449,,0.0405,,0.0517,,0.0411,0.0423,0.0432,0.0523,,0.0356,0.0408,0.0399,0.0298,
R50C,0.104,0.122,,,0.0829,0.0896,,,0.0396,0.0958,,,0.117,0.0676,0.0734,,,,,
L22H,0.0596,0.0578,,0.055,0.0459,,0.0351,0.043,0.044,0.0614,0.049,0.0432,0.0504,0.0552,0.0435,0.0679,0.0389,,0.0647,0.038
L22S,0.0508,0.0461,0.0518,0.0399,0.0571,0.0513,0.0484,0.0465,0.0477,,,0.0508,0.0524,0.047,0.045,0.0445,0.0537,,0.0419,0.0568
L22D,0.0491,0.0372,0.0396,0.0442,0.0523,0.0498,0.049,0.0507,0.0374,0.0525,0.0436,0.0455,0.0471,0.051,0.041,0.0348,,0.0249,,
V67W,0.0768,0.0983,,,0.0797,,0.0557,0.0452,0.0544,0.0805,0.0801,0.0536,0.0997,0.0557,0.0436,0.0754,,0.0698,,0.0597
V67S,0.0761,0.0977,,,0.0773,0.0764,0.0644,0.0645,0.0452,0.0689,0.0663,0.0575,0.0847,0.0578,0.0601,0.0593,0.0491,0.0575,,0.0472
G37F,0.0689,0.0925,,0.0496,0.0727,0.0527,0.0519,0,0.0547,0.0593,0.0563,0.058,0.0711,0.0548,0.0572,0.0852,0.0308,,0.0657,0.0404
G37A,0.101,,,,,0.088,,0.0629,0.0456,0.0641,0.0798,0.062,0.104,0.0641,0.0562,,,0.0511,,0.0596
F65N,0.107,0.115,0.0619,0.0793,0.0961,0.0877,,,0.0507,0.08,0.0781,,0.0943,0.0612,0.0622,0.0895,0.0656,0.0496,,
F49Q,0.0631,0.0661,,0.0378,0.0608,,0.0547,0.0427,,0.0599,0.0571,0.0629,0.0604,,0.0074,,0.0496,,0.0667,
F49Y,0.0656,0.0681,0.037,,,0.0556,0.053,0.11,,0.0568,0.0541,0.0435,0.0668,,0.0558,,0.0498,,0.0417,0.0547
F49D,0.0496,0.0537,0.0609,0.0625,0.052,,0.0524,,0.0555,0.0528,0.059,0.0545,0.0554,,,0.0304,0.044,,0.0136,
H29P,0.0944,0.0765,,0.0909,,,0.061,0.0549,0.0638,0.0886,0.0693,0.0536,0.0839,,0.0724,,0.0472,0.057,0.0733,0.0661
H29I,0.0929,0.11,,,0.102,,,0.0781,0.0712,0.0933,0.0979,0.0495,0.1,0.0733,,0.0859,,,,0.0412
H29M,0.109,0.126,,,0.151,,0.0531,0.0659,0.0584,0.0897,,0.0643,0.108,0.0924,0.056,0.127,,0.0799,0.0805,
V58R,0.0403,,,,0.0457,0.0296,0.0432,,0.058,,0.0565,0.0553,0.0504,0.0645,0.057,0.0496,,0.0539,,
G63T,0.09,0.114,0.0631,,,,0.0643,0.061,0.046,0.0887,,0.0612,0.0926,0.0669,0.0628,0.085,,0.0974,0.0541,0.0562
G63R,0.0905,0.099,,0.0637,0.105,0.075,,,0.0495,0.0829,,0.0729,0.0886,0.065,,0.0683,,0.0714,,
G63L,0.0803,0.0983,,0.0707,0.0798,0.0723,,0.0516,0.0618,0.0714,0.0649,0.0539,0.0871,,0.0662,0.0491,0.06,,0.0684,
L33H,0.0701,0.0751,0.0636,,0.0777,0.0528,0.0587,0.0614,0.0556,0.0548,0.0475,,0.0696,0.0606,0.0685,0.0466,0.0619,0.0699,0.0683,
L33Y,0.0501,0.0593,0.0884,,,0.0636,0.0545,0.0666,0.0686,0.0926,0.0652,0.0473,0.0609,0.0603,0.0555,0.0411,0.058,0.0567,,0.069
